# According to the supplement of paper PMC8728848:
# The list shows a part of the results.
# Key:
# Assay in all cases: glycan array binding signal (z-score within array); higher = stronger binding
# Conditions in all cases: glycan notation: IUPAC condensed, linker removed
# [1] = biological target: Neu5Gc(a2-8)Neu5Gc(a2-3)Gal(b1-4)GlcNAc(b1-3)Gal(b1-4)GlcNAc
# Outline: (§1)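 The binding signal is a Z-score computed within each array and averaged over linkers. Arrays of the same protein sequence at different concentrations or buffers were also averaged together. Data originate from 3228 arrays in the Consortium for Functional Glycomics database, kept only where the protein sequence was available.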
# [2] = biological target: Neu5Gc(a2-8)Neu5Gc(a2-6)Gal(b1-4)GlcNAc
# Outline: as §1
# [3] = biological target: Neu5Gc(b2-6)Gal(b1-4)GlcNAc
# Outline: as §1
binder,measurement,setting,value
DC-ASGPR L+GEE (Homo sapiens) (protein) MTRTYENFQYLENKVKVQGFKNGPLPLQSLLQRLRSGPCHLLLSLGLGLLLLVIICVVGFQNSKFQRDLVTLRTDFSNFTSNTVAEIQALTSQGSSLEETIASLKAEVEGFKQERQAGVSELQEHTTQKAHLGHCPHCPSVCVPVHSEMLLRVQQLVQDLKKLTCQVATLNNNGEEASTEGTCCPVNWVEHQDSCYWFSHSGMSWAEAEKYCQLKNAHLVVINSREEQNFVQKYLGSAYTWMGLSDPEGAWKWVDGTDYATGFQNWKPGQPDDWQGHGLGGGEDCAHFHPDGRWNDDVCQRPYHWVCEAGLGQTSQESH,glycan array binding signal (z-score),[1],-0.458
same,glycan array binding signal (z-score),[2],-0.204
same,glycan array binding signal (z-score),[3],-0.604
